From the supplement of paper PMC11417369 come the findings set out here.

The other results are listed elsewhere or left out.

The test system of this experiment is PF3D7_0420300 AP2 domain 1 (GST-tagged). The experiment in a line: gcPBM binding intensity (ln(normalized median fluorescence intensity)); higher = stronger DNA binding. An outline of the steps: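 Binding intensity is defined as the maximum Masliner-normalised natural-log median intensity across replicate spots for either probe orientation. It was measured on an Agilent 4 × 180k array of primer-extended double-stranded 36-bp intergenic genomic probes and negative controls, to which GST-tagged P. falciparum DNA-binding domains made in E. coli were applied for 1 h in 1× PBS with 1% milk, 0.2 mg/ml BSA, 0.5% salmon testes DNA and 0.03% Triton X-100. Detection was by Alexa488 anti-GST antibody and scanning at 488 nm.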
As for “TATATATAATATTGCACACAAAATTAAAAGTAAATA [CACACA_site19]”, the “gcPBM binding intensity (ln)” value amounted to 9.46.

For “CAACTCTTATTTAATTATATGAATTAATTTATATGA [CACACA_negctrl_site200]”, the “gcPBM binding intensity (ln)” value came to 8.95.

As to “TGCATAAATTTATGCACACATAAAAAAAAAAAAAAA [CACACA_site2923]”, the “gcPBM binding intensity (ln)” value is 9.14.

Take “AATATCTTAGTGGATACACACATATAAATGTGTATT [CACACA_site6367]”: the “gcPBM binding intensity (ln)” value was determined as 9.5. Turning to “CTTTCAATTTTTTTCTGTACCAATAAAAAATATAAA [XGTACX_site2120]”, the “gcPBM binding intensity (ln)” value stood at 8.48. Take “TTGAGCATAAAATTTGGAAACCTCAATCGGACAAAA [GTGCAC_negctrl_site84]”: the “gcPBM binding intensity (ln)” value came out at 9.13. In the case of “GATTACAAAAAAAATACACACAAAAAAAAAAAGGAA [CACACA_site2096]”, the “gcPBM binding intensity (ln)” value is 9.99. The same measure for “ATATTTATGTAAAAAAGTACATACAATTATATATGT [XGTACX_site3750]”: 9.22; for “ATAATGTTTTATAATACACACATTATATATATAAAT [CACACA_site6101]”: 9.38. For “ACATGAATTTATATGTGTACTAACTATATTCTTAAA [XGTACX_site5966]”, the “gcPBM binding intensity (ln)” value came out at 9.1.

Turning to “ATGAATAAATAGGTCACACACAAATATTTATAAATA [CACACA_site7186]”, the “gcPBM binding intensity (ln)” value turned out to be 9.86.

As for “TATCTGTATTTATTCACACATATAAAATATAATTAA [CACACA_site5560]”, the “gcPBM binding intensity (ln)” value was 9.08. In the case of “TATATACAATATAGGTGTACATTTTTTTATCTATTT [XGTACX_site8431]” it was 9.32. The same measure for “TCTGGCATATAATATTGTACACATATATATATATAT [XGTACX_site8182]”: 9.61. Take “AACGGGGGTAGTTTTATGCACACGTTTATTAATGCT [CACACA_site3173]”: the “gcPBM binding intensity (ln)” value came out at 9.59.

Take “GATATGAATATAGGTTGTACTATATATAAAGTATGT [XGTACX_site1877]”: the “gcPBM binding intensity (ln)” value amounted to 9.35. In the case of “AAAGTACAAGTATAATCACACGTGTCTATTATATAC [CACACA_site4507]” it was 9.45; in that of “TGTTTCTAAAAAAAAGGTACACATATATATAATATA [XGTACX_site3217]”, 9.11.

Take “GTAACCCACCAAAATGCACACATTAAAAAAAAAAAA [CACACA_site1046]”: the “gcPBM binding intensity (ln)” value came out at 9.2. Take “AAACCGTGGGAGCACACACACACACGCGCACATATA [CACACA_site6288]”: the “gcPBM binding intensity (ln)” value was determined as 10.1. Take “ATAGTTTATACAAATAGTACGCACAAAAAAAAATAA [XGTACX_site6727]”: the “gcPBM binding intensity (ln)” value amounted to 9.29. Take “TTTATCAAAATAAATGCACACAAATTGCACATATCT [CACACA_site8281]”: the “gcPBM binding intensity (ln)” value was found to be 9.27. The same measure for “TATATATTATATATATGTACATATTTATTTTATTTT [XGTACX_site6989]”: 9.13.

Turning to “AATACCGGAAAGCAAACACACATTTGAAAACCATAA [CACACA_site7761]”, the “gcPBM binding intensity (ln)” value stood at 9.75.

For the sequence “AAAAAATTTCAAATGACATAATGTAATTTCCCTTTT [GTGCAC_negctrl_site673]”, the “gcPBM binding intensity (ln)” value was found to be 9.04. In the case of “TATATATAAACAAAATGTACATATTTGAGATACCCT [XGTACX_site2195]” it was 9.34; in that of “ACACATACATACATATGTACATATATACATATATAC [XGTACX_site5559]”, 9.48; in that of “TTTTTATTTTTTATGTAATTTAAATAATTATTCAAA [CACACA_negctrl_site1549]”, 8.95. The same measure for “AGTAAACGATGATGTTGTACAAAAAGGATAATTTAA [XGTACX_site6698]”: 9.43. On to “TACAAAAAAGAAGATATTCAAACAAAAACAAAAAAA [CACACA_negctrl_site1126]”, for which the “gcPBM binding intensity (ln)” value was 9.62. On to “CAATACTATTATTATAGTACGTATAAAATTATATAT [XGTACX_site4950]”, for which the “gcPBM binding intensity (ln)” value was found to be 9.26. In the case of “TATCATAATAGACACAGTACATATATGTCTTAAATT [XGTACX_site8775]” it was 9.26.

Consider “TATATATATATGCTACGTACATATATATTATATATA [XGTACX_site7894]”, for which the “gcPBM binding intensity (ln)” value is 9.22. “GTATTCTTCTCTCCGTGTACATATATATGTATATAT [XGTACX_site803]”: the “gcPBM binding intensity (ln)” value was 9.67. In the case of “AACATTTTTAGATTATATTATTAAATAAGTAACTGC [XGTACX_negctrl_site326]” it was 9.19. The same measure for “AGATATATATTTTATTGTACACATTAAAGTATAAAA [XGTACX_site7194]”: 9.17. In the case of “AACACTTTAATTTATGCACACATATGGAACAACAGC [CACACA_site8241]” it was 9.71; in that of “AAGTTTTTTATTTTTTGTACATAAAAAATAATAATT [XGTACX_site1755]”, 8.92. As to “TATGTATTTATATATACACACTTCTGTGATACGAAA [CACACA_site5128]”, the “gcPBM binding intensity (ln)” value amounted to 9.15.

On to “TTTTTGTTTTTTTTTTGTACATATATATAAAAAATA [XGTACX_site1214]”, for which the “gcPBM binding intensity (ln)” value came to 9.12. The same measure for “TTTTTTTTAATATTTTACATTGTCTGTTAACAAATA [CACACA_negctrl_site599]”: 9.14; for “ATGAACATTTATAAATGTACTCACATATATATATTT [XGTACX_site6692]”: 9.21.

With “TTTATATTTATCCAAAGTACTTTTTAAAAACATACC [XGTACX_site4518]”, the “gcPBM binding intensity (ln)” value was 8.92. Regarding “AAAAAAAAAAAAAAAACACACATTTGAAAGAAAGAA [CACACA_site3339]”, the “gcPBM binding intensity (ln)” value was 9.49. The same measure for “TACACCCATGGACACACACACACGCATAAAAAAAAA [CACACA_site4933]”: 9.93; for “ATTTTTATTTTCTTTACACACCACATAATTTTTTTT [CACACA_site6092]”: 9.75; for “GCCACACTTTTCTGCACACATAAAAAATATATAAAT [CACACA_site578]”: 9.62. For the sequence “TATATCGTTATATAAACACACAATATGTTTTTTATA [CACACA_site7730]”, the “gcPBM binding intensity (ln)” value turned out to be 9.31.

Turning to “CTTTTATGAAACAGTGCACACATAAAAATATATACA [CACACA_site8981]”, the “gcPBM binding intensity (ln)” value was 9.4. In the case of “CATAAGAGGAACTTTTGTACTTATATGTATATAGTA [XGTACX_site5836]” it was 9.02; in that of “ATTTATTGACTATTTACACACATATTTATTAGAATA [CACACA_site6863]”, 9.53.

With “GGGAGGATAGTTCACAGTACCCAGTAACTCTACGGA [XGTACX_site2558]”, the “gcPBM binding intensity (ln)” value was determined as 9. Consider “ATGATACATAAAGAATATAAAACATGAAATATAATA [CACACA_negctrl_site1461]”, for which the “gcPBM binding intensity (ln)” value amounted to 9.51.

In the case of AACTGAGAAACCGAAGTGCAATATGTATATATACAT, the “gcPBM binding intensity (ln)” value was determined as 9.36.

Take “ATATGAAAGGTGTACACACGCACACCCAAAAAAATA [CACACA_site2911]”: the “gcPBM binding intensity (ln)” value is 9.57. The same measure for “TAATTTAAAAATATAAATGTTTCACTTATATATTTT [TGCATGCA_negctrl_site399]”: 8.89.

With “ATATATAATATATATGCATGTGACATTAATAATATA [TGCATGCA_site880]”, the “gcPBM binding intensity (ln)” value is 9.18. With “CCACACTTAAAATACACACACACCAAAAAAAAAAAA [CACACA_site2709]”, the “gcPBM binding intensity (ln)” value stood at 10. The same measure for “TTTTTTACGCATAACTTAATATGAGAATCCCTTTCT [GTGCAC_negctrl_site522]”: 9.07; for “TTCCTCTTAAAATATACACACTGATTTAAGAAAAAA [CACACA_site5770]”: 8.94; for ATATATAATACTACAGTGCAATATATTATATTTGTT: 9.27. In the case of “TTGTGATTATTATATTGTACAATAAGTATTAAAGAA [XGTACX_site2753]”, the “gcPBM binding intensity (ln)” value stood at 9.2. The same measure for GCAAATCATGCTATGGTGCATATGTAAGATGAGCAT: 9.04; for “ATACTAAATATAAATTGTACTTTATTTATATTGAGA [XGTACX_site8699]”: 9.08.

In the case of “TTAACATAGATATATACACACCAATGATGGCATTTA [CACACA_site6840]”, the “gcPBM binding intensity (ln)” value worked out at 9.3.

For “TATATATATATATATATACACACTATATAATTCAAA [CACACA_site1023]”, the “gcPBM binding intensity (ln)” value is 9.27. Consider “TTTTTTTTTTTTTAGAGTACACACTTTTTTACATTT [XGTACX_site8159]”, for which the “gcPBM binding intensity (ln)” value is 9.19. With “CATAAAATATAAAACACACACACATATATTTATATA [CACACA_site6247]”, the “gcPBM binding intensity (ln)” value was 10. On to “AAATAAAAGTTCACCTGTACACACATATATATATGT [XGTACX_site3513]”, for which the “gcPBM binding intensity (ln)” value was found to be 9.56. As for “AAAATAATATTTAATACACACATAATTATAATATAA [CACACA_site782]”, the “gcPBM binding intensity (ln)” value stood at 9.5. The same measure for “ATTTTTAATTGAATCACACATTTCCTTTCTTTTGTG [CACACA_site4438]”: 9.41; for “ATTAAAAATAAGAAGAGTACATATAATATATATACA [XGTACX_site3092]”: 9.29. Turning to “ACCTTTTGGATTATATGTACATATATATATATATAT [XGTACX_site2687]”, the “gcPBM binding intensity (ln)” value worked out at 9.33. In the case of “TTAAAAAGAAAGTTCACACACATATATATGACGGAA [CACACA_site2602]” it was 9.69; in that of “AGAATACATCTATGAACACACAGAGTTTTAAAAAAT [CACACA_site5514]”, 9.39; in that of “TTTTTCATTTAACAGAAGGGAGATAAAAAAAAAAAA [TGCATGCA_negctrl_site261]”, 8.89. The same measure for “ATATTATTTTAAAGTACACACATATATTGATATATA [CACACA_site7153]”: 9.39; for “GTATGTATGTATGTATGTACGTATGTATGTATATAT [XGTACX_site3369]”: 9.43. The same measure for “AATAATTATAAAAAATGTACAAAAAAAAAAAAAAAA [XGTACX_site3681]”: 9.08; for “TATTTTTTTAAAAATACACACATAAAATCATGAAAA [CACACA_site1085]”: 9.26; for “TTTTTTTATATTTTTAGTACACATTGGTATATATAT [XGTACX_site4114]”: 9.38. Consider “ATATATATATGTCAAAGTACTAAAAATATATACATA [XGTACX_site3397]”, for which the “gcPBM binding intensity (ln)” value was found to be 9.2. As for “CATAGAATAATTTATTGTACGTGCATGCTATTTTTT [XGTACX_site8984]”, the “gcPBM binding intensity (ln)” value amounted to 9.37.

Take “ATTAAATATATGATGTGTACATATTCGTGTATGTTT [XGTACX_site2141]”: the “gcPBM binding intensity (ln)” value stood at 9.57.

On to “AAACAGAATACATATACACACATACAAAAAAGTGCA [CACACA_site8235]”, for which the “gcPBM binding intensity (ln)” value is 9.85. In the case of “TATACATTTTTATAAAGTACACAAAAATAAATATAA [XGTACX_site1647]” it was 9.17.

Regarding “AATGCTATCTTCTTATTTTTCATACACAACATGAAC [CACACA_negctrl_site1809]”, the “gcPBM binding intensity (ln)” value was found to be 9.4.

Consider “TATAATATTTATATAACACACATATATATTTATTTA [CACACA_site280]”, for which the “gcPBM binding intensity (ln)” value worked out at 9.26. In the case of “AAAATAAATTTTTATGTTATATATACAATTTCTCTA [CACACA_negctrl_site1760]”, the “gcPBM binding intensity (ln)” value was determined as 9.02.
